Measurements from the supplement of paper PMC10126150.
Values marked as one replicate rest on one cluster of the flow cell; about a third of the high ones do not repeat.

Test system: ATP
Experiment: switch fluorescence ratio, 500 uM ATP over buffer (Cy3 cluster intensity, sum of 5 cycles each) (fold (ratio)); higher = stronger signal-on switching upon ATP binding; sequences stand for … in TCGTCGGCAGCGTCAGATGTGTATAAGAGACAGTTTTTTTTTTTTTTTTTTTTTTTTT…TC
Details: aptamer strand: ATP DNA aptamer (quencher-CACCTGGGGGAGTATTGCGGAGGAAGG + anchor), 100 nM annealed; ATP concentration: 500 uM; one replicate
Method in brief: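 The fluorescence ratio divides summed target-cycle Cy3 intensity by summed buffer-cycle Cy3 intensity for each cluster and is averaged per switch-domain sequence. Cy3-labelled switching-strand clusters on a modified Illumina MiSeq flow-cell were annealed to 100 nM quencher-labelled ATP aptamer, then imaged in selection buffer and again after 15 min with 500 uM ATP at 22 °C. Five such cycles were run, with NaOH stripping and re-annealing between them, and clusters outside 100-1000 RFU were excluded.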
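Also: ATP exposure 15 min at 22 °C before imaging.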

Sequence | switch fluorescence ratio
TAGCGGTCTA | 0.957
GGAGCGGGCG | 0.879
TATGGTGCTC | 1.02
GACGATGTTT | 1
CGCTCGGAAA | 1.01
GGACTCTCGT | 1.02
TCATTTCCGA | 1.07
TGGAGTTTCC | 1.04
CTATGATTAT | 1.01
ACTGAATAGG | 0.972
TTCCCCCTTG | 1.27
GTCCTCCCAG | 3.65
GGCACGTTTT | 1.01
ACGTGGGCTC | 1.03
ATATGTTTGC | 1.02
TTGTACTCTA | 1.07
TCGACGGCTT | 1.14
TTTCTTGCTC | 1.39
ACTTCGGTCT | 1.03
CTCTATTTTT | 1.02
TCCTATTTCA | 0.968
CCGTCACCCC | 1.43
ATGGGTCCTA | 0.99

Sequence | switch fluorescence ratio
GGTAGCTCTA | 0.977
GGGCTAAGTG | 1.01
GAAGGGACAG | 1
GCGTCAGTTA | 1.04
TTACCGATG | 1.05
CAAAAGTTCC | 1.13
GGTTGACCTA | 1
TCATATGCGG | 1.02
GTTCTAACTT | 1.01
TTTAACGGAG | 0.988
ACGTTTTGTT | 1.01
ATTATATGT | 0.978
CACGGCCAT | 1.04
CCAAACGGAG | 1.02
CCCTGAACGT | 0.98
GATCTGGCGT | 0.95
GTCGTATCAT | 0.962
TCCTAAAATA | 1.04
AAAGGCAAAT | 1
ATGACCTGGA | 1.12
TAGGAGTCAA | 0.999
CCGGCCCAGC | 1.21
ACTTTCTCGA | 0.983

Sequence | switch fluorescence ratio
GAAATGGGCT | 1.01
CCTCTGGTG | 1.36
CTCGTAATAG | 4.53
GAACTGTCTG | 1.03
CATTGCATGT | 0.99
GCAAACCATT | 1.02
TGAACCAACC | 1.23
ATGATTTGTA | 0.991
TGAGGCCTA | 1.09
AGCCGGGGTG | 1.06
CACTCAAGCC | 1.15
CTAAGTGCCT | 1.05
GCGATTGAGA | 0.995
ATTAGGGGT | 1.05
CCGGAGAATT | 3.02
CAGCTTACCC | 1.26
CAGGATAGAC | 0.992
TCACAGCCTA | 0.986
TGGGTTTCG | 1.04
AGGGTGCTAG | 0.967
GGAGGGTACG | 1.07
GTTTTGCCCC | 0.934
GGACCCCTTA | 1.02

Sequence | switch fluorescence ratio
TTATTTGCCA | 1.02
GCCTAATACA | 1.02
TGGATAGCTT | 0.961
TTGGAATTAA | 0.984
GAGCCGCGCA | 0.996
CTTCTAGATG | 1
GTAGTAGCTG | 0.999
AGTGATGCGC | 1.05
CTAATGTGTG | 0.939
GCGGGTGCAT | 0.998
CAGGAGGTGT | 1.06
GGGCATTTGC | 0.976
TTAAGAAAGT | 1.03
TGCTCAACTC | 1.02
CTACGTGGGG | 0.967
GACAGTGTCA | 1.01
GTGTCATAGA | 0.996
CGGGAAAAAC | 1.06
CCACACTGGA | 1.04
CTATGTGACA | 0.998
TTCGAGAGAT | 0.998
AGAACTGATA | 1.04
TAGGAGTAGG | 1.06

Sequence | switch fluorescence ratio
GGCCGGCACC | 0.947
CGGCTGCACA | 1.75
AGTTTTATC | 0.945
TTGTTTCATA | 0.972
TAATACAAGC | 1.03
CTTAATTGTA | 1.02
TTTGGGCTTT | 0.992
GGGGTTCAAC | 1.02
ATGTGAGGAA | 0.982
ATAACCGGGG | 1.04
CGAGACTTTT | 1.04
AGTGTGCTGT | 1.02
TTGGATTTCC | 1.07
ATCGAGGATC | 0.962
GCAGAACACT | 1
CTGTGCTATC | 2.06
GGACATATA | 1.01
TGTTGAGCTG | 1
AAACGTGATG | 1
GCTGCGGGGG | 1.03
TTTATATCAA | 0.966
CAATCATTAC | 1.13
ATTGAATATG | 1.04

Sequence | switch fluorescence ratio
TGAAAGCAAG | 1.2
ATGGTTGTT | 1.04
TCGGTTGGCA | 1.02
TACATCATTT | 1.02
AGGTGCTTAA | 1.06
ATTAGATGG | 1.02
TGGTTAGATA | 1.02
TGGCTTCAGC | 0.969
CGTTGGGGTC | 1.02
CTGATAGGTG | 1.02
CACTAGTGCC | 1.02
GCCCACCTAG | 1.05
AATGTGTCAG | 1.04
GGGTGATCCG | 1.02
AACAACTAGG | 1.05
CCCAAACTAT | 1.04
TAGTTGAAAT | 1.01
TAATTTCTAG | 1.01
GCAACAGGTT | 1.09
CGGCACTTGG | 1.06
GACGCGGAA | 1.07
GATGGACTCA | 1.16
GAATAGCATT | 0.992

Sequence | switch fluorescence ratio
TGTTTGCCA | 0.966
ATAAGTCGTA | 0.929
GATTATATTC | 1.01
TTATAGTAGC | 0.976
AGGGGTCTC | 0.96
CCGTGCAGGT | 1.2
GCTGGTGCCG | 0.995
TTCGTTGCGG | 0.992
ACGTTTGCTC | 1.04
TTTCAATCTA | 1.04
AGTAAAGGAT | 0.992
GTAAACCTTG | 1.16
TATCTGGATC | 0.98
AACACTAGGA | 1.05
GAGCCGCAAC | 4.48
GTTAGCCCGT | 0.997
CAACTGCGTC | 1.06
TCTTGGCAGA | 1.03
ACGCAGATTT | 1.13
